According to patent US20210317230A1 (HANGZHOU SUMGEN BIOTECH, published 2021):

Molecular target: T1, CD47-His (UniProt Q08722 part only, limits assumed)
T1 construct: also called target antigen CD47; not shown: His tag
Assay: ELISA, CD47-His coated at 1 µg/ml, anti-human IgG HRP detection

CD47-His, sequence (Q08722 19-141 limits assumed): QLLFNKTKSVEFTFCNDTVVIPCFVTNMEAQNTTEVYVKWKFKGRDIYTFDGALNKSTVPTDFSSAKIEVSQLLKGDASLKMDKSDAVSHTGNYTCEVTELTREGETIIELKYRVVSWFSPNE

EC50: 0.072 nM
B1: SS002M91 fusion protein (M91 fused with IgG1-FC) (Fc fusion)
chain: ELQVIQPDKSVLVAAGETATLRCTATSLLPVGPIQWFRGAGPGRQLIYNQKDGHFPRVTTASDLTKRNNMDFSINIGNITPADAGTYYCVKFRKGSPDDIEFKSGAGTELSVRAKPSL[human IgG1 Fc left out]
